Experimental data published in the supplement of paper PMC11417369.
This is one part of the list.

Tested on: PfAP2-HC AP2 domain (GST-tagged)
Assay: gcPBM binding intensity (ln(normalized median fluorescence intensity)); higher = stronger DNA binding
In short: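 An Agilent 4 × 180k array carrying primer-extended double-stranded 36-bp intergenic genomic probes and negative controls received GST-tagged P. falciparum DNA-binding domains expressed in E. coli, about 25 μg on average, for 1 h. The binding buffer contained 1× PBS, 1% milk, 0.2 mg/ml BSA, 0.5% salmon testes DNA and 0.03% Triton X-100. Binding intensity is the top Masliner-normalised natural-log median intensity across replicate spots of either probe orientation, read after Alexa488 anti-GST antibody staining and a 488 nm scan.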

Row | Sequence | gcPBM binding intensity (ln)
1 | GTAAAAATTTCATATTCACACACAAAAAAAAAAAAT [CACACA_site8457] | 10.5
2 | TTACTAAACTTATATGTACACACATATAACATTAAT [CACACA_site8710] | 10.2
3 | TAAAAAAAAAAAAAAAGTACCCATACTATATTACAT [XGTACX_site946] | 9.54
4 | AAGAATTTTACAAAATGTACTTATGTTTTGTTTTAC [XGTACX_site5632] | 9.79
5 | AGTAGTCTGGAGAAGAGTACATAGTATCTGATAACC [XGTACX_site2044] | 9.73
6 | TAATTAATATATTTTTGTACTTATATATTTGCGTAT [XGTACX_site340] | 9.71
7 | AATCCACAAAGACACACACACACATATATATATATA [CACACA_site1269] | 10.8
8 | AAAATTCTTCGGGGGAGTACAAGGATATTCTACGTT [XGTACX_site3974] | 10.2
9 | TTATAATATATATGTGGTACTTATTTATTTATTTAT [XGTACX_site7572] | 9.7
10 | ATTTTTGATTTTAAAAGTACATAAGTATACTATTTA [XGTACX_site7162] | 9.55
11 | TTTTGTAATTTTGTATGTACACATTAAAGTAATATG [XGTACX_site2401] | 9.66
12 | ATAAATAAATTTATACGTACACATAATATATATATA [XGTACX_site4634] | 9.7
13 | ATTGAAAATTATTTACCTTCTTTGAAAGAACAAATG [CACACA_negctrl_site1736] | 9.41
14 | AAAAATAAAATGATGGTGCACATAAAGTATGGTTAC | 10.2
15 | TAAATAATCGCATAATGTACATATAATTTTTTTTTT [XGTACX_site4880] | 9.51
16 | AAAATTTTTTTTATTTGTACACAATTCGATACATAA [XGTACX_site4804] | 9.58
17 | GCTTGGATATATTAATGTACTTATATATTATGTTGT [XGTACX_site3768] | 9.82
18 | CCAATTCAAATATGCACACAAATTTGAAAACGATTA [CACACA_site3607] | 9.71
19 | CTTTTGCCCAAAAAGGTACACACCACAATGTACATA [CACACA_site809] | 9.6
20 | GTTAATATACATAAACGTACAGAATTATTATGAGTT [XGTACX_site5185] | 9.72
21 | TTTGTTGTTGTGAAACGTACTCATAGGATGTTGTAT [XGTACX_site5716] | 9.56
22 | ATATTTTCAATGTTCACACATACACAAAAAAAAAAA [CACACA_site6077] | 9.7
23 | AAAGATGGAGTGATATGTACTGATATATTATTATAT [XGTACX_site6500] | 9.77

Row | Sequence | gcPBM binding intensity (ln)
24 | AAGCATAAAGTATATAGTACATATATATATATATAT [XGTACX_site2945] | 9.59
25 | ATTAAAAAATCCATAGTGCACTACGATAGGTTCCGA [GTGCAC_site9463] | 9.7
26 | TTTTTTATTGTGATACGTATATTATTTTATGATAAA [CACACA_negctrl_site1591] | 9.59
27 | TAAAAATGTAAACACACACACATAAATATATTTTAT [CACACA_site5397] | 10.3
28 | ATATAGTAAAGTTATACACACATGAATTTTCCCATA [CACACA_site7457] | 9.86
29 | ATATTTTAATTATAAAGTACATAAAAATATATAAAC [XGTACX_site6705] | 9.72
30 | AAAAAAGAAACAATCGCATGCAATGTTAATGTACAT [TGCATGCA_site395] | 10
31 | TACGCAAAATAAAATCAAAATATAAGGAAAAAAAAA [TGCATGCA_negctrl_site578] | 9.55
32 | AGGTGTCATATATGCACACAAAAGTAACACGCACCT [CACACA_site472] | 10.1
33 | TTTTTTAAACGTTTAAATAATTAAATATAAATAAAT [CACACA_negctrl_site1567] | 9.19
34 | TGAACAACTATTACTGCACACATTCTTACACTATAT [CACACA_site4533] | 10.6
35 | AAAAAAAAAAAAGGTACTACACACTATTATCAATAG [XGTACX_site161] | 9.76
36 | GATAATTTTTGCATATGTACTTAAAAATTAAAAATT [XGTACX_site7037] | 9.48
37 | GACCTACAAAAAGGCACACATATACTCATACATACA [CACACA_site5232] | 9.82
38 | ACATTTATTTTGAATGGTACACTATTATTATGAAAT [XGTACX_site4384] | 9.52
39 | GTGTAATGCTTATCGGTGCATATATATATATATATA | 9.68
40 | TATCTCTACAAAATTTTATTCATTATTCATGTTATA [XGTACX_negctrl_site452] | 9.5
41 | ACAAAGAAATATAATACACACAAGAATATATTGGAT [CACACA_site3901] | 10.2
42 | TAATATTTATCAAGTCGTACATAAAATGTATAATAA [XGTACX_site1103] | 9.63
43 | GTACAATAAGATGTAGCATGCCGTACCTTCACTACG [TGCATGCA_site235] | 9.6
44 | ATACTGTATGAAAGCACACATACTTATTACTAACAT [CACACA_site4164] | 9.8
45 | TATACATATTTGTATTGTACATAAACTAAATCTTCA [XGTACX_site610] | 9.45
46 | CAAATAACAAAATAATGTACATTTATACTTTTTTTT [XGTACX_site943] | 9.61

Row | Sequence | gcPBM binding intensity (ln)
47 | AAATAGAGAAATACAAGTACATACTAAACCTATCTA [XGTACX_site1334] | 9.87
48 | AGGATTATATATTAATGTACCCGCGTTAATTTTTTT [XGTACX_site2878] | 9.76
49 | TCTAATAAAATAAATACATGCATACATACATACATA [TGCATGCA_site895] | 9.62
50 | TTATTAAATGAAAAATGTACATATAAATGATTATAT [XGTACX_site2788] | 9.55
51 | GAAATGTGTAGACACGCACACACAAAAAAATATATA [CACACA_site2912] | 10.2
52 | ATGTATAAACATATATGTACTTAAATAAAATGTTAA [XGTACX_site4044] | 9.86
53 | AAAAATAAAAAAATAATAAAATAAAAAATAAAAAAT [TGCATGCA_negctrl_site89] | 9.8
54 | TAAAAAAACATATATTGTACGGAGATAATAATTTTT [XGTACX_site2946] | 9.64
55 | TATACTGTCAATTCTACACACCATAGGGGGAGCATA [CACACA_site1875] | 10.1
56 | CACCAATTCATATGCACACACATCTGCATATTATAT [CACACA_site1773] | 10.2
57 | ATTAAAAGAACAATGTAAAAAAAGCAAATTAAAGAT [TGCATGCA_negctrl_site360] | 10
58 | AAAAAAAAAATACAGGTGCAATAAGAAAAAAATGGT | 9.86
59 | TATATTAACAAAATGGTGCAATAATTTCTATATTAT [GTGCAC_site9857] | 9.57
60 | CCAAATTTATAAAGAACACACACATATATATATATA [CACACA_site7900] | 10.2
61 | TATACATATTTAATATGTACATAATAATACTTATTC [XGTACX_site6939] | 9.59
62 | AAGCATGTAGAATAATGTACTTGTGATTTTAATATA [XGTACX_site8565] | 9.83
63 | ATATTTTTTGTATGTTGTACATAAAATATACATTTT [XGTACX_site6815] | 9.75
64 | AGATACTTTTTTAAAAGTACAAAAACTTTCGATATA [XGTACX_site959] | 9.45
65 | CATACATACATACATACACACATACATATATATATA [CACACA_site8388] | 9.87
66 | TCTAAAATAGTCCAGAGTACAAGAAACCATAATATA [XGTACX_site5237] | 9.52
67 | ATATAGGTAATATTTTGTACATATTTTTGGGGTAGT [XGTACX_site5634] | 9.83
68 | AATTCTTTTTTCAACACACACACACCCGAAAATATA [CACACA_site3111] | 10.5
69 | TTCTAATATATGCATACACACAAATGTGAATATACA [CACACA_site2142] | 9.83

Row | Sequence | gcPBM binding intensity (ln)
70 | ATATATTTATTTATATGTACATAATATTTTTCTCAG [XGTACX_site800] | 9.52
71 | AAAAAAAAAAAAAACACACACACACCCAAATATATA [CACACA_site1169] | 11.3
72 | AAAAATGCAATTTAATGTACACATAAGATGTTATTT [XGTACX_site6853] | 9.67
73 | TTTTTTATTACTTTGTGTACTTACACAGAACCTTAT [XGTACX_site6038] | 9.76
74 | ATAAAAATATAAACATGTACATAAAAATCTATATAT [XGTACX_site405] | 9.82
75 | TTGCTTATATTTCTAAAATGTAAAAGACACAAAGGT [XGTACX_negctrl_site225] | 9.45
76 | AAAAAGGTTATTGGTACACACATATGTATATATATA [CACACA_site552] | 10.1
77 | GAACCGTGCAAATGTTGTACACTTTAAAAATATTCT [XGTACX_site4488] | 9.78
78 | ATATGTGTGTAGTGTTCAATTATATTGATGTGAAGG [TGCATGCA_negctrl_site462] | 10.1
79 | TTATAATAATTTTATGCACACAGAAAAATACAAGGT [CACACA_site9169] | 9.87
80 | ATAATATATATATTAACACACATCCTTTTATGTATA [CACACA_site1203] | 9.83
81 | TACATATAGAAACACACACACATATATATATATATA [CACACA_site1300] | 10
82 | TAGGAGCCTAGACACACACACAAAAAAAAAAAAAAA [CACACA_site6911] | 9.89
83 | AAAACGAAAATTTGGAAACCAAAGGAAAAACATAAT [GTGCAC_negctrl_site709] | 9.85
84 | TATATAAGAATTTTTACACACATGAAAATGTAGATA [CACACA_site3735] | 9.69
85 | TATTTAATGTGATACTTATATTATTTTATGATTAAA [GTGCAC_negctrl_site25] | 9.49
86 | TATACATACTCACCCACACACAAAAAAAAAAAAAAA [CACACA_site862] | 10.4
87 | ACAAAATAAAAACACACACACAAACACAAAAAAATA [CACACA_site3390] | 11.4
88 | AGCTCTTGTCATTTTGCACACACACCGGTATAGGTT [CACACA_site5654] | 10.2
89 | AGAAGGTAAAAACACACACACACATACAAAAAAAAA [CACACA_site3767] | 10.7
